PubChem BioAssay AID2147 (National Center for Advancing Translational Sciences (NCATS), 2009)
In all, about 230,000 compounds went through this assay and about 3,600 (1.6%) were called active. The inconclusive results got no clear call from the source; some entries with a clear call stand among them for comparison. Calls come from the whole dose curve; as a rule, active = well fitted inhibition curve with a large enough effect (not every such curve was filed as active); inconclusive = small, poorly fitted or top-dose-only effect, or another doubt; inactive = no such curve, though single readings can be large or run the other way. Potencies of inconclusive entries are doubtful fits and often do not repeat.

These compounds were tested against Lysine-specific demethylase 4E (Homo sapiens) (UniProt B2RXH2) (assay: qHTS Assay for Inhibitors of Human Jumonji Domain Containing 2E (JMJD2E)). Conditions: JMJD2E catalytic domain, FDH-coupled NADH fluorescence (FDH is formaldehyde dehydrogenase); series mostly up to 57.1 µM.
Note: nearly all actives have a fitted effect of over 50% in size.
Potency is the fitted concentration of half-maximal effect; tags give direction and shape of the fitted curve.

UniProt B2RXH2, sequence (B2RXH2 whole entry, looked up, the tested form may be a part): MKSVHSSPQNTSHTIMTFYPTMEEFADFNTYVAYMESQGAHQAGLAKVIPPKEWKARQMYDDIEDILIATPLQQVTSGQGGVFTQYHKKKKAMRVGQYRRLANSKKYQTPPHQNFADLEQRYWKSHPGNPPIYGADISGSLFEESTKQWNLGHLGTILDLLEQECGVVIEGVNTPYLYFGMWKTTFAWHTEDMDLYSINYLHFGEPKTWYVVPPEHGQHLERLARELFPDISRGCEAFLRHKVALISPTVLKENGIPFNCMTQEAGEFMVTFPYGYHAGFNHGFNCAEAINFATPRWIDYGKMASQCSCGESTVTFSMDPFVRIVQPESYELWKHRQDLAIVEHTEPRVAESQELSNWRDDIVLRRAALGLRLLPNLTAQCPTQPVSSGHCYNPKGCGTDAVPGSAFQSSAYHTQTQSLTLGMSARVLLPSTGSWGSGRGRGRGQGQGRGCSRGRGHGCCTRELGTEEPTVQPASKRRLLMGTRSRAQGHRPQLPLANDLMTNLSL

| Structure (SMILES) | Potency |
| --- | --- |
| O=C(NNc1c2ccccc2nc2ccccc12)C(O)c1ccccc1 (centres undefined) | inactive |
| COC(=O)Cn1c(=O)c(=O)n(CC(=O)OC)c2ccccc21 | inconclusive: 35.5 µM [inhibitor, single point] |
| Cc1nn(Cc2ccc(F)cc2)c(Cl)c1/C=N/NC(=O)c1ccccc1 | inconclusive: 31.6 µM [inhibitor, single point] |
| COCCOC(=O)C(CC(=O)O)NCc1ccco1 (centres undefined) | inactive |
| COc1ccc(CNC(=O)CCCNS(=O)(=O)c2cccc3nonc23)cc1 | inactive |
| Oc1ccc(CN2CCc3ccccc3C2)c2cccnc12 | inconclusive: 35.5 µM [inhibitor, single point] |
| O=C(Nc1ccc(Cl)c(S(=O)(=O)N2CCOCC2)c1)c1cc(-c2ccccn2)nc2ccccc12 | inconclusive: 5.01 µM [inhibitor, partial curve, poor fit] |
| O=C(CCC(=O)N(CC(=O)NC1CCCC1)Cc1ccc2c(c1)OCO2)Nc1ccccn1 | inactive |
| O=C(Cc1cc(=O)[nH][nH]1)N/N=C/C=C/c1ccccc1 | inactive |
| CCOC(=O)C1=C(C)Nc2ccc(C)cc2S1 | inactive |
| Cc1c(C(=O)O)cccc1-c1ccc(/C=C2/NC(=O)N(c3ccccc3)C2=O)o1 | inconclusive: 22.4 µM [inhibitor, partial curve] |
| Cc1ccc(-n2c(SCC(=O)N3CC(=O)Nc4ccccc43)nc3ccccc3c2=O)cc1C | inconclusive: 4.47 µM [inhibitor, single point] |
| COc1ccc(-c2nnc(NC(=O)c3ccc(S(=O)(=O)N4COCC4(C)C)cc3)o2)cc1 | inconclusive: 39.8 µM [inhibitor, single point] |
| CCOC(=O)c1cc(=O)n(-c2ccc(Cl)cc2C)[nH]1 | inconclusive: 39.8 µM [inhibitor, single point] |
| CCS(=O)(=O)c1ccc(-c2csc(-c3ccc(Cl)cc3)n2)c(Cl)c1Cl | inconclusive: 28.2 µM [inhibitor, single point] |
| O=C(O)C1Cc2ccccc2CN1C(=O)CSc1nnc2ccccn12 (centres undefined) | inconclusive: 25.1 µM [inhibitor, partial curve] |
| COC(=O)C(C)c1ccc(C(=O)c2cccs2)cc1 (centres undefined) | inactive |
| O=C(CNS(=O)(=O)c1cccs1)N1CCN(c2ccccn2)CC1 | inconclusive: 35.5 µM [inhibitor, single point] |
| COc1ccc(C(Nc2ccc(S(=O)(=O)NCC3CCCO3)cc2)C(=O)NC(C)(C)C)cc1OC (centres undefined) | inactive |
| CCOc1ccc(S(=O)(=O)NCc2ccccc2)cc1C(N)=O | inactive |
| Cc1ccc(-c2sc(C(=O)NN)c(C)c2C#N)cc1 | inconclusive: 31.6 µM [inhibitor, single point] |
| O=C(CSc1nc(NS(=O)(=O)c2ccccc2)cc(=O)[nH]1)Nc1ccc(Cl)cc1 | inconclusive: 39.8 µM [inhibitor, single point] |

| Structure (SMILES) | Potency |
| --- | --- |
| FC(F)(F)c1cc(-c2ccccc2)nc2ncnn12 | inconclusive: 31.6 µM [inhibitor, partial curve] |
| Cc1cccc(Oc2ncnc3oc(-c4ccccc4)cc23)c1C | inconclusive: 7.94 µM [inhibitor, full curve] |
| O=C(c1cc(-c2ccc(Cl)c(Cl)c2)on1)N1CCN(c2ccccc2)CC1 | inactive |
| CCC(N=c1cc(-c2ccc(OC)cc2)oc2ccc(C)cc12)C(=O)O (centres undefined) | inconclusive: 28.2 µM [inhibitor, partial curve] |
| CCOC(=O)c1c(C)oc2c1c(CN1CCN(C(=O)OCC)CC1)c(O)c1ccccc12 | active: 25.1 µM |
| COc1cc(C2C3C(=O)N(Cc4ccccc4)C(=O)C3ON2c2ccccc2)cc(OC)c1O (centres undefined) | inconclusive: 20 µM [inhibitor, single point] |
| CC1(OC(=O)c2cccs2)C(=O)C=C2C=C3CCCN3C=C2C1=O (centres undefined) | active: 5.62 µM |
| CC1(C)CC(=O)C=C(N2CCN(C3=CC(=O)CC(C)(C)C3)CC2)C1 | inactive |
| COc1ccc(-c2nn(-c3ccccc3)cc2CNCCN2CCOC2=O)c(F)c1 | inconclusive: 28.2 µM [inhibitor, partial curve] |
| COc1cc(NC(=O)c2ccco2)c(OC)cc1NC(=O)CSc1ncc(-c2ccc(F)cc2)[nH]1 | inconclusive: 25.1 µM [inhibitor, partial curve] |
| O=C(c1cc(-c2ccccc2)nc2ccccc12)N1CCN(c2ccccn2)CC1 | inconclusive: 35.5 µM [inhibitor, single point] |
| N#C/C(=C\c1ccc(Sc2nc3ccccc3[nH]2)o1)c1ccccc1 | inconclusive: 39.8 µM [inhibitor, single point] |
| CCC1OC(=O)C[C@H](O)C(C)[C@@H](O[C@@H]2OC(C)C(O)C(N(C)C)C2O)C(CCN2CC(C)CC(C)C2)CC(C)C(=O)/C=C/C(C)=C\[C@@H]1COC1OC(C)C(O)C(OC)C1OC (some centres undefined) | inconclusive: 35.5 µM [inhibitor, single point] |
| Cc1ccc[n+](CC(=O)c2ccc(-c3ccccc3)cc2)c1 | inconclusive: 35.5 µM [inhibitor, single point] |
| CCO[C@H]1OC(C(=O)NC2CC2)=C[C@@H](c2csc3ccccc23)[C@@H]1CCCO | inactive |
| Cc1nc(NCc2ccccc2)c2nc(-c3ccccc3)n(CCN3CCCC3)c2n1 | inconclusive: 25.1 µM [inhibitor, partial curve] |
| CCC(=O)Nc1sc2c(c1C(=O)N(C)C)CCCCC2 | inactive |
| O=C(CCc1nc(-c2ccccc2)no1)NCc1ccco1 | inactive |
| COc1cc2[nH]c(C(=O)NN)c(N)c2cc1OC | inconclusive: 28.2 µM [inhibitor, partial curve] |
| CN(Cc1ccccc1)C(=S)Nc1ccc2nc3n(c(=O)c2c1)CCCCC3 | inconclusive: 31.6 µM [inhibitor, partial curve] |
| COC(=O)c1[nH]c(C)c(/C(O)=C2\C(=O)C(=O)N(CCN3CCOCC3)C2c2ccccc2OC)c1C (centres undefined) | inactive |
| CC(C)(C)C(=O)NC(=S)NNC(=O)C(c1ccccc1)c1ccccc1 | inconclusive: 7.08 µM [inhibitor, single point] |
